From the supplement of paper PMC3334620
Over roughly 33,000 sequences, “E-score (-0.5 to 0.5)” has its median near -0.054; the highest 2% begin near 0.35. This is one part of the list.

Target: T1, Stb5 (UniProt P38699)
T1 sequence: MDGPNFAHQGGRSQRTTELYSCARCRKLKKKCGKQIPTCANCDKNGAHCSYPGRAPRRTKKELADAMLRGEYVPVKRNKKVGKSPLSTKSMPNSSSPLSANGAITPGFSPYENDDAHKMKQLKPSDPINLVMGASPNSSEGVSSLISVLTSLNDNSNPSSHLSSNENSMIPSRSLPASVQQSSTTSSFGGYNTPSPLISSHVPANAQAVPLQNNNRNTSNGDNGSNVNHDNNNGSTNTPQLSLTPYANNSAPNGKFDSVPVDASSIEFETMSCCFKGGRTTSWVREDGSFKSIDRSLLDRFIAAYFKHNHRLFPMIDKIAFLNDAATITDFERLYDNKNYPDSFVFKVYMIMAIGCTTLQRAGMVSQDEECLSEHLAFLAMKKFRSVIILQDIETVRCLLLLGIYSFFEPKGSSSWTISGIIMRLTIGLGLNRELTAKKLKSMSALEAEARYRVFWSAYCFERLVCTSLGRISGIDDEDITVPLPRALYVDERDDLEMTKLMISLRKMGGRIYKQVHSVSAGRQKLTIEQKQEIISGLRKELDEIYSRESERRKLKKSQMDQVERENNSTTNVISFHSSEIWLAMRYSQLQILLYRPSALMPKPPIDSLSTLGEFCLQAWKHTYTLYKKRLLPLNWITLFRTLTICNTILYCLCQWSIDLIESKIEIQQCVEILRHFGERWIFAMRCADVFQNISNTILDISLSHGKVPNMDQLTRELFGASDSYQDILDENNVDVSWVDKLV
Test: PBM E-score (8-mer binding enrichment) (E-score (-0.5 to 0.5)); higher = stronger / more preferred TF binding; most listed sequences are background and not binding sites
Details: protein concentration: 200 nM; construct: GST-full length
Summary of the method: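 Universal all-10-mer Agilent arrays, double-stranded by primer extension on fresh or once-stripped slides, were probed with about 100-200 nM GST-tagged yeast transcription factors made by PURExpress. Fluorescent anti-GST detected bound protein, and masliner normalised the scans. E-scores from the Universal PBM Analysis Suite were given to each ungapped eight-base word pooled with its reverse complement.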

Point of comparison: GAGCAAGC, “PBM E-score” value -0.168. Against it:
- GACCCTAA — higher, -0.0104
- GAGTTTAA — higher, 0.12
- CGCTTGAC — higher, -0.133
- CGGATGAC — higher, 0.0711
- CTCTGAAC — lower, -0.248
- CGCATTGA — higher, 0.151
- ATTCAGGG — higher, -0.0992
- TACGGTGA — higher, 0.16
- CGCCCTCC — higher, 0.0961
- AGCGGGCC — higher, 0.23
- GCCAGGGC — higher, -0.011
- AAGGACTA — lower, -0.29
- CTCTGCCC — higher, -0.111
- CTCAGCAG — lower, -0.262
- CGTTCACA — higher, -0.0592
- CCGAACAA — higher, 0.227
- AAGGTTGA — higher, -0.141
- CACCAGGA — higher, -0.0163
- AGGGGGAA — higher, -0.101
- AATCTAGT — higher, 0.0539
- ACTTCTTC — lower, -0.225
- AAGGTCAC — lower, -0.222
- CCCCTCTA — higher, -0.0762
- CCTGCTGA — lower, -0.216
- TCAGAAAA — lower, -0.27
- AACTACAG — higher, 0.0118
- GATACGTA — higher, -0.0463
- ATCTTTCC — higher, -0.0409
- ATGTGTGA — higher, -0.163
- AAGTAATC — higher, 0.0448
- AGTGAAAG — lower, -0.203
- ATTCTCGC — lower, -0.235
- CAAGGTCA — higher, -0.111
- CCATGCCA — higher, -0.0013
- CAAACTAG — lower, -0.267
- ATGAACAT — lower, -0.197
- CAGGATAG — higher, -0.12
- AGGTGCCC — higher, -0.142
- AGAAAGAG — higher, -0.102
- GAACAGTC — higher, -0.132
- ATCTTGGC — higher, -0.0726
- CCCGTTTC — higher, 0.231
- GGCATGGA — higher, 0.0843
- ATCCATTG — higher, -0.123
- CTGAATGC — higher, -0.131
- AGCGCCAG — higher, 0.0993
- ACTCAGGC — higher, -0.117
- CCTGTCAA — higher, -0.145
- AGCACCCT — lower, -0.217
- GTTATGTA — higher, 0.181
- TCCAGGGA — lower, -0.324
- ACAGGGCG — higher, 0.111
- CACACTCC — higher, 0.0222
- AAGGGCGA — lower, -0.172
- AGGAGCTG — lower, -0.254
- ATCCCGTG — higher, 0.19
- AACATATC — higher, 0.177
- GCTCGGGA — higher, 0.137
- CGGGAGAC — higher, 0.0383
- GGATAGAA — higher, 0.14
- CCTGCGAG — higher, -0.0967
- GCTAGACA — higher, 0.0147
- GCCCTGCA — higher, -0.121
- CGGCTGTA — higher, 0.249
- AAGATACC — higher, 0.168
- AGACGTAA — lower, -0.259
- AACCGAAG — higher, 0.0358
- CTCCTGAA — higher, 0.0446
- TCGAATAA — higher, -0.125
- CGCCCAAG — higher, -0.0356
- CTCGGTCC — higher, 0.242
- CCAGACAC — higher, -0.145
- CATCGCCC — higher, -0.126
- CTAAACTA — higher, -0.11
- CGGTTACA — higher, 0.278
- CGTGATAG — higher, -0.0805
- CATTACCC — higher, -0.00203
- ACCGAGAT — higher, 0.208
- TGATTAAA — higher, 0.0509
- ACAGGCTA — lower, -0.205
- ATTTTAAG — higher, 0.0501
- CATTTTCG — higher, 0.0696
- AAGGGCGT — higher, -0.14
- AGGTAACG — higher, 0.0582
- CACTCTCG — higher, -0.0728
- TCGGGTAA — higher, -0.0182
- CGGCCTGC — higher, -0.0229
- GCCTAAAC — higher, -0.162
- GGCGGCAA — higher, 0.307
- ATGGCCGA — higher, 0.324
- GCGGAGAC — higher, 0.305
- AGCGCGTG — higher, -0.116
- AGTAGTGC — higher, -0.0336
- GCAACATA — higher, -0.0704
- AGTGGCGA — higher, 0.0076
- CGGAAGCC — higher, 0.11
- GTGTCTGA — higher, -0.0383
- GTGTCCTA — higher, -0.0179
- GCGAAGAA — higher, -0.0935
- ATTCCACG — lower, -0.198
- TGACACCA — higher, -0.123
- AGGCCCAC — lower, -0.201
- AAGCCGAC — higher, 0.344
- AACTTGGA — higher, 0.0988
- ACTTCCGA — higher, 0.262
- CCACCTCC — higher, 0.015
- CGTTCAGC — higher, -0.0774
- ACCGTCAA — higher, 0.289
- GAATACGC — higher, 0.0638
- AACCGCGA — higher, 0.272
- AGGGCGAC — higher, -0.124
- GGGATGAC — higher, -0.0348
- CCAGCTGG — higher, -0.159
- TCACCGCA — higher, 0.305
- CGTCATAG — higher, 0.0607
- GAACATAA — higher, 0.052
- ACTCACCA — lower, -0.29
- ACGCTGAG — higher, -0.148
- AAAATACC — higher, 0.316
- AAGACCCC — higher, 0.11
- CGAATCAC — higher, -0.0468
- TAATGGAA — higher, 0.00151
- AAAAGTAT — higher, -0.128
- AAGGAACC — higher, 0.00712
- ACGGCGTA — higher, 0.0801
- GTGTTCTA — higher, 0.0717
- ATTTGAGA — higher, -0.076
- AGCAAGCT — lower, -0.363
- AATCAACC — higher, -0.0664
- AGAAGTGC — higher, -0.119
- AACCTCGA — higher, -0.144
- CTAAGAGC — higher, 0.0408
- AACGTTAG — higher, -0.0282
- GGGTACTA — higher, -0.0611
- CACTCCTA — higher, 0.00265
- ATAAAAAA — higher, -0.115
- CGTGGCGA — higher, -0.0624
- TCCGCACA — higher, 0.0913
- CTAAATTC — higher, -0.0582
- CGGTTCAC — higher, 0.00031
- AAGCGGAT — higher, 0.297
- AAGACGTA — lower, -0.223
- GACTAAGA — higher, 0.171
- ATGAGGTA — higher, -0.132
- AGGTGGAT — higher, -0.138
- ACGATGAT — higher, -0.135
- CTTTTCTA — lower, -0.203
- ATCAGTTA — higher, -0.044
- TAGACTGA — higher, -0.0526
- CTTCTAAA — higher, -0.0754
- CGATCCAG — lower, -0.194
- GTTCGGCA — higher, 0.0778
- AGCAGAGC — higher, -0.159
- AGGACGTC — higher, -0.144
- CCTCTAAA — lower, -0.196
- AGCATCTC — lower, -0.195
- GCCTTGCA — lower, -0.246
- ATAAAGGG — higher, 0.0937
- ACAATGCC — higher, 0.125
- GCACAAAA — higher, -0.0316
- GTCCCTAA — higher, -0.0488
- CTCGCAAA — lower, -0.304
- GACTGTAC — higher, -0.111
- ACCCTCTC — lower, -0.22
- CACCATCG — higher, -0.0738
- CCTGGGAA — the same, -0.168
- ACGGTCAA — higher, 0.126
- CCGATTCG — higher, 0.157
- ATAACCCG — higher, 0.228
- CATTACGA — higher, -0.167
- AACGATAA — higher, -0.0423
